The list shows a part of the results. Cut-off read from the data, not from the text of the source: active = 3.2 or more and inactive = the rest. Most of these values are background signal.
Biological target: SHP2 C-SH2 domain E139D
Experiment: enrichment score (SH2-bound / input frequency) (ratio); bacterial display of known human phosphotyrosine sites (pTyr-Var adds point mutants) read by sequencing; higher = stronger binding; tyrosines were phosphorylated by kinases first
Conditions: peptide library: Human pTyr
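Note: displayed peptides selected on beads carrying the immobilized SH2 domain, with library peptides lacking any tyrosine serving as negative controls.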

Binder | enrichment score
ARIEEFVYEKLDRKA [SH3GLB1_HUMAN_80] | inactive: 0.639
GPGTPVKYSEVVLDS [SIT1_HUMAN_148] | active: 11
VVKAGESYTHIQYLF [SH2D3_HUMAN_278] | inactive: 3.03
FKFNEENYGVKTTAD [ATX2L_HUMAN_264_YA] | inactive: 0.7
DSLEHNYYNSIPGKE [SHC2_HUMAN_339] | inactive: 0.813
AGKQKLQYEGIFIKD [SF3A1_HUMAN_759] | inactive: 1.3
EMFENPLYGSLSSFP [SHIP1_HUMAN_1022] | inactive: 0.725
ARAVENQYSFAGGGG [SH2B2_HUMAN_629_YA] | inactive: 0.661
FVNSNSDYVDVLPGG [SH21B_HUMAN_127] | inactive: 0.613
ATQPEPIYAESTKRK [SG223_HUMAN_413] | inactive: 0.915
EDSLEHNYANSIPGK [SHC2_HUMAN_338_YA] | inactive: 0.668
IPHDGNLYPRLAPEL [SDCB1_HUMAN_46_YA] | inactive: 0.566
FKFNEENYGVKTTYD [ATX2L_HUMAN_264] | inactive: 0.688
SPVFEGVYNNSRMLH [ATX2L_HUMAN_118] | inactive: 0.657
EQAQKVRYEGSYALT [SDPR_HUMAN_395] | inactive: 0.808
EDSLEHNYYNSIPGK [SHC2_HUMAN_338] | inactive: 0.731
KKDELSDYAEKSTGK [ATRX_HUMAN_1063] | inactive: 1.07
EAPSTTEYSEIKIHT [SIG11_HUMAN_668] | inactive: 1.19

Biological target: SHP2 C-SH2 domain wild-type
Experiment: as above
Conditions: peptide library: Human pTyr

Binder | enrichment score
ARIEEFVYEKLDRKA [SH3GLB1_HUMAN_80] | inactive: 0.473
GPGTPVKYSEVVLDS [SIT1_HUMAN_148] | active: 20
VVKAGESYTHIQYLF [SH2D3_HUMAN_278] | active: 4.84
FKFNEENYGVKTTAD [ATX2L_HUMAN_264_YA] | inactive: 0.726
DSLEHNYYNSIPGKE [SHC2_HUMAN_339] | inactive: 0.705
AGKQKLQYEGIFIKD [SF3A1_HUMAN_759] | inactive: 1.2
EMFENPLYGSLSSFP [SHIP1_HUMAN_1022] | inactive: 0.552
ARAVENQYSFAGGGG [SH2B2_HUMAN_629_YA] | inactive: 0.635
FVNSNSDYVDVLPGG [SH21B_HUMAN_127] | inactive: 0.718
ATQPEPIYAESTKRK [SG223_HUMAN_413] | inactive: 0.809
EDSLEHNYANSIPGK [SHC2_HUMAN_338_YA] | inactive: 0.565
IPHDGNLYPRLAPEL [SDCB1_HUMAN_46_YA] | inactive: 0.572
FKFNEENYGVKTTYD [ATX2L_HUMAN_264] | inactive: 0.805
SPVFEGVYNNSRMLH [ATX2L_HUMAN_118] | inactive: 0.532
EQAQKVRYEGSYALT [SDPR_HUMAN_395] | inactive: 0.796
EDSLEHNYYNSIPGK [SHC2_HUMAN_338] | inactive: 0.83
KKDELSDYAEKSTGK [ATRX_HUMAN_1063] | inactive: 0.804
EAPSTTEYSEIKIHT [SIG11_HUMAN_668] | active: 3.26

Biological target: SHP2 N-SH2 domain L43F
Experiment: as above
Conditions: peptide library: Human pTyr

Binder | enrichment score
ARIEEFVYEKLDRKA [SH3GLB1_HUMAN_80] | inactive: 0.632
GPGTPVKYSEVVLDS [SIT1_HUMAN_148] | active: 8.12
VVKAGESYTHIQYLF [SH2D3_HUMAN_278] | inactive: 1.68
FKFNEENYGVKTTAD [ATX2L_HUMAN_264_YA] | inactive: 0.707
DSLEHNYYNSIPGKE [SHC2_HUMAN_339] | inactive: 0.829
AGKQKLQYEGIFIKD [SF3A1_HUMAN_759] | inactive: 1.32
EMFENPLYGSLSSFP [SHIP1_HUMAN_1022] | inactive: 0.617
ARAVENQYSFAGGGG [SH2B2_HUMAN_629_YA] | inactive: 0.695
FVNSNSDYVDVLPGG [SH21B_HUMAN_127] | inactive: 0.562
ATQPEPIYAESTKRK [SG223_HUMAN_413] | inactive: 1
EDSLEHNYANSIPGK [SHC2_HUMAN_338_YA] | inactive: 0.629
IPHDGNLYPRLAPEL [SDCB1_HUMAN_46_YA] | inactive: 0.548
FKFNEENYGVKTTYD [ATX2L_HUMAN_264] | inactive: 0.714
SPVFEGVYNNSRMLH [ATX2L_HUMAN_118] | inactive: 0.568
EQAQKVRYEGSYALT [SDPR_HUMAN_395] | inactive: 0.624
EDSLEHNYYNSIPGK [SHC2_HUMAN_338] | inactive: 0.648
KKDELSDYAEKSTGK [ATRX_HUMAN_1063] | inactive: 0.85
EAPSTTEYSEIKIHT [SIG11_HUMAN_668] | inactive: 0.884

Biological target: SHP2 N-SH2 domain T42A
Experiment: as above
Conditions: peptide library: Human pTyr

Binder | enrichment score
ARIEEFVYEKLDRKA [SH3GLB1_HUMAN_80] | inactive: 0.685
GPGTPVKYSEVVLDS [SIT1_HUMAN_148] | active: 23.4
VVKAGESYTHIQYLF [SH2D3_HUMAN_278] | inactive: 1.69
FKFNEENYGVKTTAD [ATX2L_HUMAN_264_YA] | inactive: 0.58
DSLEHNYYNSIPGKE [SHC2_HUMAN_339] | inactive: 0.659
AGKQKLQYEGIFIKD [SF3A1_HUMAN_759] | inactive: 1.22
EMFENPLYGSLSSFP [SHIP1_HUMAN_1022] | inactive: 0.569
ARAVENQYSFAGGGG [SH2B2_HUMAN_629_YA] | inactive: 0.577
FVNSNSDYVDVLPGG [SH21B_HUMAN_127] | inactive: 0.681
ATQPEPIYAESTKRK [SG223_HUMAN_413] | inactive: 0.899
EDSLEHNYANSIPGK [SHC2_HUMAN_338_YA] | inactive: 0.62
IPHDGNLYPRLAPEL [SDCB1_HUMAN_46_YA] | inactive: 0.511
FKFNEENYGVKTTYD [ATX2L_HUMAN_264] | inactive: 0.64
SPVFEGVYNNSRMLH [ATX2L_HUMAN_118] | inactive: 0.515
EQAQKVRYEGSYALT [SDPR_HUMAN_395] | inactive: 0.7
EDSLEHNYYNSIPGK [SHC2_HUMAN_338] | inactive: 0.757
KKDELSDYAEKSTGK [ATRX_HUMAN_1063] | inactive: 0.826
EAPSTTEYSEIKIHT [SIG11_HUMAN_668] | inactive: 0.969

Biological target: SHP2 N-SH2 domain T52S
Experiment: as above
Conditions: peptide library: Human pTyr

Binder | enrichment score
ARIEEFVYEKLDRKA [SH3GLB1_HUMAN_80] | inactive: 0.805
GPGTPVKYSEVVLDS [SIT1_HUMAN_148] | active: 5.65
VVKAGESYTHIQYLF [SH2D3_HUMAN_278] | inactive: 1.42
FKFNEENYGVKTTAD [ATX2L_HUMAN_264_YA] | inactive: 0.774
DSLEHNYYNSIPGKE [SHC2_HUMAN_339] | inactive: 0.836
AGKQKLQYEGIFIKD [SF3A1_HUMAN_759] | inactive: 1.2
EMFENPLYGSLSSFP [SHIP1_HUMAN_1022] | inactive: 0.751
ARAVENQYSFAGGGG [SH2B2_HUMAN_629_YA] | inactive: 0.671
FVNSNSDYVDVLPGG [SH21B_HUMAN_127] | inactive: 0.588
ATQPEPIYAESTKRK [SG223_HUMAN_413] | inactive: 0.985
EDSLEHNYANSIPGK [SHC2_HUMAN_338_YA] | inactive: 0.745
IPHDGNLYPRLAPEL [SDCB1_HUMAN_46_YA] | inactive: 0.561
FKFNEENYGVKTTYD [ATX2L_HUMAN_264] | inactive: 0.747
SPVFEGVYNNSRMLH [ATX2L_HUMAN_118] | inactive: 0.513
EQAQKVRYEGSYALT [SDPR_HUMAN_395] | inactive: 0.677
EDSLEHNYYNSIPGK [SHC2_HUMAN_338] | inactive: 0.708
KKDELSDYAEKSTGK [ATRX_HUMAN_1063] | inactive: 0.985
EAPSTTEYSEIKIHT [SIG11_HUMAN_668] | inactive: 0.913

Biological target: SHP2 N-SH2 domain wild-type
Experiment: as above
Conditions: peptide library: Human pTyr

Binder | enrichment score
ARIEEFVYEKLDRKA [SH3GLB1_HUMAN_80] | inactive: 0.702
GPGTPVKYSEVVLDS [SIT1_HUMAN_148] | inactive: 1.56
VVKAGESYTHIQYLF [SH2D3_HUMAN_278] | inactive: 2.27
FKFNEENYGVKTTAD [ATX2L_HUMAN_264_YA] | inactive: 0.59
DSLEHNYYNSIPGKE [SHC2_HUMAN_339] | inactive: 1.29
AGKQKLQYEGIFIKD [SF3A1_HUMAN_759] | inactive: 1.1
EMFENPLYGSLSSFP [SHIP1_HUMAN_1022] | inactive: 0.579
ARAVENQYSFAGGGG [SH2B2_HUMAN_629_YA] | inactive: 0.545
FVNSNSDYVDVLPGG [SH21B_HUMAN_127] | inactive: 0.546
ATQPEPIYAESTKRK [SG223_HUMAN_413] | inactive: 1.13
EDSLEHNYANSIPGK [SHC2_HUMAN_338_YA] | inactive: 0.543
IPHDGNLYPRLAPEL [SDCB1_HUMAN_46_YA] | inactive: 0.577
FKFNEENYGVKTTYD [ATX2L_HUMAN_264] | inactive: 0.961
SPVFEGVYNNSRMLH [ATX2L_HUMAN_118] | inactive: 0.475
EQAQKVRYEGSYALT [SDPR_HUMAN_395] | inactive: 0.649
EDSLEHNYYNSIPGK [SHC2_HUMAN_338] | inactive: 0.882
KKDELSDYAEKSTGK [ATRX_HUMAN_1063] | inactive: 1.24
EAPSTTEYSEIKIHT [SIG11_HUMAN_668] | inactive: 1.14

From the supplement of paper PMC10369915
